# Test results published in the supplement of paper PMC8728848.
# Some of the results follow.
# B1: DC-ASGPR-short (Homo sapiens) (protein)
# chain: MTRTYENFQYLENKVKVQGFKNGPLPLQSLLQRLRSGPCHLLLSLGLGLLLLVIICVVGFQNSKFQRDLVTLRTDFSNFTSNTVAEIQALTSQGSSLEETIASLKAEVEGFKQERQAVHSEMLLRVQQLVQDLKKLTCQVATLNNNASTEGTCCPVNWVEHQDSCYWFSHSGMSWAEAEKYCQLKNAHLVVINSREEQNFVQKYLGSAYTWMGLSDPEGAWKWVDGTDYATGFQNWKPGQPDDWQGHGLGGGEDCAHFHPDGRWNDDVCQRPYHWVCEAGLGQTSQESH
# Assays:
# Experiment in all cases: glycan array binding signal (z-score within array); higher = stronger binding
# Conditions in all cases: glycan notation: IUPAC condensed, linker removed
# [1] = target: Fuc(a1-2)Gal(b1-4)GlcNAc(b1-3)Gal(b1-4)GlcNAc(b1-2)Man(a1-3)[Fuc(a1-2)Gal(b1-4)GlcNAc(b1-3)Gal(b1-4)GlcNAc(b1-2)Man(a1-6)]Man(b1-4)GlcNAc(b1-4)GlcNAc
# Method in brief: (§1)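 The binding signal is a Z-score computed within each array and averaged over linkers. Arrays of the same protein sequence at different concentrations or buffers were also averaged together. Data originate from 3228 arrays in the Consortium for Functional Glycomics database, kept only where the protein sequence was available.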
# [2] = target: Fuc(a1-2)Gal(b1-4)GlcNAc(b1-3)Gal(b1-4)GlcNAc(b1-3)Gal(b1-4)GlcNAc
# Method in brief: as §1
# [3] = target: Fuc(a1-2)Gal(b1-4)GlcNAc(b1-3)GalNAc
# Method in brief: as §1
# [4] = target: Fuc(a1-2)Gal(b1-4)GlcNAc(b1-3)[Fuc(a1-2)Gal(b1-4)GlcNAc(b1-6)]GalNAc
# Method in brief: as §1
# [5] = target: Fuc(a1-2)Gal(b1-4)GlcNAc(b1-3)[Fuc(a1-3)[Gal(b1-4)]GlcNAc(b1-6)]Gal(b1-4)Glc
# Method in brief: as §1
# [6] = target: Fuc(a1-2)Gal(b1-4)GlcNAc(b1-6)GalNAc
# Method in brief: as §1
# [7] = target: Fuc(a1-2)Gal(b1-4)GlcNAc6S
# Method in brief: as §1
# [8] = target: Fuc(a1-2)Gal(b1-4)[Fuc(a1-3)]GlcNAc
# Method in brief: as §1
# [9] = target: Fuc(a1-2)Gal(b1-4)[Fuc(a1-3)]GlcNAc(b1-2)Man(a1-3)[Fuc(a1-2)Gal(b1-4)[Fuc(a1-3)]GlcNAc(b1-2)Man(a1-6)]Man(b1-4)GlcNAc(b1-4)[Fuc(a1-6)]GlcNAc
# Method in brief: as §1
# [10] = target: Fuc(a1-2)Gal(b1-4)[Fuc(a1-3)]GlcNAc(b1-2)[Fuc(a1-2)Gal(b1-4)[Fuc(a1-3)]GlcNAc(b1-4)]Man(a1-3)[Fuc(a1-2)Gal(b1-4)[Fuc(a1-3)]GlcNAc(b1-2)Man(a1-6)]Man(b1-4)GlcNAc(b1-4)GlcNAc
# Method in brief: as §1
# [11] = target: Fuc(a1-2)Gal(b1-4)[Fuc(a1-3)]GlcNAc(b1-3)Gal(b1-4)[Fuc(a1-3)]GlcNAc
# Method in brief: as §1
# [12] = target: Fuc(a1-2)Gal(b1-4)[Fuc(a1-3)]GlcNAc(b1-3)Gal(b1-4)[Fuc(a1-3)]GlcNAc(b1-3)Gal(b1-4)[Fuc(a1-3)]GlcNAc
# Method in brief: as §1
# [13] = target: Fuc(a1-2)Gal(b1-4)[Fuc(a1-3)]GlcNAc(b1-3)GalNAc
# Method in brief: as §1
# [14] = target: Fuc(a1-2)Gal(b1-4)[Fuc(a1-3)]GlcNAc(b1-3)[Neu5Ac(a2-6)Gal(b1-4)GlcNAc(b1-6)]Gal(b1-4)Glc
# Method in brief: as §1
# [15] = target: Fuc(a1-2)Gal3S(b1-4)GlcNAc
# Method in brief: as §1
# [16] = target: Fuc(a1-2)Gal6S(b1-3)GlcNAc
# Method in brief: as §1
# [17] = target: Fuc(a1-2)Gal6S(b1-3)GlcNAc6S
# Method in brief: as §1
# Fuc(a1-2)Gal6S(b1-4)Glc = target: Fuc(a1-2)Gal6S(b1-4)Glc
# Method in brief: as §1
# [18] = target: Fuc(a1-2)Gal6S(b1-4)Glc6S
# Method in brief: as §1
# Fuc(a1-2)[Gal(a1-3)]Gal = target: Fuc(a1-2)[Gal(a1-3)]Gal
# Method in brief: as §1
# [19] = target: Fuc(a1-2)[Gal(a1-3)]Gal(b1-3)GalNAc
# Method in brief: as §1
# [20] = target: Fuc(a1-2)[Gal(a1-3)]Gal(b1-3)GalNAc(b1-3)Gal(a1-4)Gal(b1-4)Glc
# Method in brief: as §1
# [21] = target: Fuc(a1-2)[Gal(a1-3)]Gal(b1-3)GlcNAc
# Method in brief: as §1
# [22] = target: Fuc(a1-2)[Gal(a1-3)]Gal(b1-3)GlcNAc(b1-2)Man(a1-3)[Fuc(a1-2)[Gal(a1-3)]Gal(b1-3)GlcNAc(b1-2)Man(a1-6)]Man(b1-4)GlcNAc(b1-4)GlcNAc
# Method in brief: as §1
# [23] = target: Fuc(a1-2)[Gal(a1-3)]Gal(b1-3)GlcNAc(b1-2)Man(a1-3)[Fuc(a1-2)[Gal(a1-3)]Gal(b1-3)GlcNAc(b1-2)Man(a1-6)]Man(b1-4)GlcNAc(b1-4)[Fuc(a1-6)]GlcNAc
# Method in brief: as §1
# [24] = target: Fuc(a1-2)[Gal(a1-3)]Gal(b1-3)GlcNAc(b1-3)GalNAc
# Method in brief: as §1
# [25] = target: Fuc(a1-2)[Gal(a1-3)]Gal(b1-3)GlcNAc(b1-6)GalNAc
# Method in brief: as §1
# [26] = target: Fuc(a1-2)[Gal(a1-3)]Gal(b1-4)Glc
# Method in brief: as §1
# [27] = target: Fuc(a1-2)[Gal(a1-3)]Gal(b1-4)GlcNAc
# Method in brief: as §1
# [28] = target: Fuc(a1-2)[Gal(a1-3)]Gal(b1-4)GlcNAc(b1-2)Man
# Method in brief: as §1
binder,measurement,setting,value
B1,glycan array binding signal (z-score),[1],-0.195
same,glycan array binding signal (z-score),[2],-0.281
same,glycan array binding signal (z-score),[3],-0.243
same,glycan array binding signal (z-score),[4],0.01
same,glycan array binding signal (z-score),[5],-0.276
same,glycan array binding signal (z-score),[6],4.65
same,glycan array binding signal (z-score),[7],-0.281
same,glycan array binding signal (z-score),[8],-0.259
same,glycan array binding signal (z-score),[9],-0.24
same,glycan array binding signal (z-score),[10],-0.192
same,glycan array binding signal (z-score),[11],-0.251
same,glycan array binding signal (z-score),[12],-0.236
same,glycan array binding signal (z-score),[13],-0.221
same,glycan array binding signal (z-score),[14],-0.273
same,glycan array binding signal (z-score),[15],-0.284
same,glycan array binding signal (z-score),[16],-0.261
same,glycan array binding signal (z-score),[17],0.591
same,glycan array binding signal (z-score),Fuc(a1-2)Gal6S(b1-4)Glc,-0.285
same,glycan array binding signal (z-score),[18],-0.281
same,glycan array binding signal (z-score),Fuc(a1-2)[Gal(a1-3)]Gal,-0.271
same,glycan array binding signal (z-score),[19],-0.265
same,glycan array binding signal (z-score),[20],-0.276
same,glycan array binding signal (z-score),[21],-0.271
same,glycan array binding signal (z-score),[22],-0.267
same,glycan array binding signal (z-score),[23],-0.268
same,glycan array binding signal (z-score),[24],-0.254
same,glycan array binding signal (z-score),[25],2.65
same,glycan array binding signal (z-score),[26],-0.263
same,glycan array binding signal (z-score),[27],-0.273
same,glycan array binding signal (z-score),[28],-0.267
